# From the supplement of paper PMC8728848
# The other results are listed elsewhere or left out.
# B1: Surfactant Protein D (Human); Neck + Carbohydrate Recognition Domain (NCRD) (Homo sapiens) (protein)
# chain: MLLFLLSALVLLTQPLGYLEAEMKTYSHRTMPSACTLVMCSSVESGLPGRDRDGREGPRGEKGDPGLPGAAGQAGMPGQAGPVGPKGDNGSVGEPGPKGDTGPSGPPGPPGVPGPAGREGALGKQGNIGPQGKPGPKGEAGPKGEVGAPGMQGSAGARGLAGPKGERGVPGERGVPGNTGAAGSAGAMGPQGSPGARGPPGLKGDKGIPGDKGAKGESGLPDVASLRQQVEALQGQVQHLQAAFSQYKKVELFPNGQSVGEKIFKTAQFVKPFTEAQLLCTQAGGQLASPRSAAENAALQQLVVAKNEAAFLSMTDSKTEGKFTYPTGESLVYSNWAPGEPNDDGGSEDCVEIFTNGKWNDAACGEKRLVVCEF
# How the values were obtained:
# Experiment in all cases: glycan array binding signal (z-score within array); higher = stronger binding
# Conditions in all cases: glycan notation: IUPAC condensed, linker removed; mutation: R343A
# [1] = target: Neu5Ac(a2-3)Gal(b1-3)GalNAc(b1-3)Gal(a1-4)Gal(b1-4)Glc
# Summary of the method: (§1)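 The binding signal is a Z-score computed within each array and averaged over linkers. Arrays of the same protein sequence at different concentrations or buffers were also averaged together. Data originate from 3228 arrays in the Consortium for Functional Glycomics database, kept only where the protein sequence was available.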
# [2] = target: Neu5Ac(a2-3)Gal(b1-3)GalNAc(b1-3)Gal(b1-4)GlcNAc
# Summary of the method: as §1
# [3] = target: Neu5Ac(a2-3)Gal(b1-3)GalNAc(b1-4)[Neu5Ac(a2-3)]Gal(b1-4)Glc
# Summary of the method: as §1
# [4] = target: Neu5Ac(a2-3)Gal(b1-3)GalNAc6S
# Summary of the method: as §1
# [5] = target: Neu5Ac(a2-3)Gal(b1-3)GlcNAc
# Summary of the method: as §1
# [6] = target: Neu5Ac(a2-3)Gal(b1-3)GlcNAc(b1-3)Gal(b1-3)GlcNAc
# Summary of the method: as §1
# [7] = target: Neu5Ac(a2-3)Gal(b1-3)GlcNAc6S
# Summary of the method: as §1
# [8] = target: Neu5Ac(a2-3)Gal(b1-3)[Fuc(a1-4)]GlcNAc
# Summary of the method: as §1
# [9] = target: Neu5Ac(a2-3)Gal(b1-3)[Fuc(a1-4)]GlcNAc(b1-3)Gal(b1-4)[Fuc(a1-3)]GlcNAc
# Summary of the method: as §1
# [10] = target: Neu5Ac(a2-3)Gal(b1-3)[Neu5Ac(a2-3)Gal(b1-4)]GlcNAc
# Summary of the method: as §1
# [11] = target: Neu5Ac(a2-3)Gal(b1-3)[Neu5Ac(a2-6)]GalNAc
# Summary of the method: as §1
# Neu5Ac(a2-3)Gal(b1-4)Glc = target: Neu5Ac(a2-3)Gal(b1-4)Glc
# Summary of the method: as §1
# [12] = target: Neu5Ac(a2-3)Gal(b1-4)GlcNAc
# Summary of the method: as §1
# [13] = target: Neu5Ac(a2-3)Gal(b1-4)GlcNAc(b1-2)Man(a1-3)[GlcNAc(b1-2)Man(b1-4)GlcNAc(b1-2)Man(a1-6)]Man(b1-4)GlcNAc(b1-4)GlcNAc
# Summary of the method: as §1
# [14] = target: Neu5Ac(a2-3)Gal(b1-4)GlcNAc(b1-2)Man(a1-3)[Neu5Ac(a2-6)Gal(b1-4)GlcNAc(b1-2)Man(a1-6)]Man(b1-4)GlcNAc(b1-4)GlcNAc
# Summary of the method: as §1
# [15] = target: Neu5Ac(a2-3)Gal(b1-4)GlcNAc(b1-3)Gal(b1-3)GlcNAc
# Summary of the method: as §1
# [16] = target: Neu5Ac(a2-3)Gal(b1-4)GlcNAc(b1-3)Gal(b1-4)GlcNAc
# Summary of the method: as §1
# [17] = target: Neu5Ac(a2-3)Gal(b1-4)GlcNAc(b1-3)Gal(b1-4)GlcNAc(b1-3)Gal(b1-4)GlcNAc
# Summary of the method: as §1
# [18] = target: Neu5Ac(a2-3)Gal(b1-4)GlcNAc(b1-3)Gal(b1-4)[Fuc(a1-3)]GlcNAc
# Summary of the method: as §1
# [19] = target: Neu5Ac(a2-3)Gal(b1-4)GlcNAc(b1-6)[Gal(b1-3)]GalNAc
# Summary of the method: as §1
# [20] = target: Neu5Ac(a2-3)Gal(b1-4)GlcNAc(b1-6)[Neu5Ac(a2-3)Gal(b1-3)]GalNAc
# Summary of the method: as §1
# [21] = target: Neu5Ac(a2-3)Gal(b1-4)GlcNAc6S
# Summary of the method: as §1
# [22] = target: Neu5Ac(a2-3)Gal(b1-4)[Fuc(a1-3)]GlcNAc
# Summary of the method: as §1
# [23] = target: Neu5Ac(a2-3)Gal(b1-4)[Fuc(a1-3)]GlcNAc(b1-3)Gal
# Summary of the method: as §1
# [24] = target: Neu5Ac(a2-3)Gal(b1-4)[Fuc(a1-3)]GlcNAc(b1-3)Gal(b1-4)GlcNAc
# Summary of the method: as §1
# [25] = target: Neu5Ac(a2-3)Gal(b1-4)[Fuc(a1-3)]GlcNAc(b1-3)Gal(b1-4)[Fuc(a1-3)]GlcNAc(b1-3)Gal(b1-4)[Fuc(a1-3)]GlcNAc
# Summary of the method: as §1
# [26] = target: Neu5Ac(a2-3)Gal(b1-4)[Fuc(a1-3)]GlcNAc(b1-6)[Gal(b1-3)]GalNAc
# Summary of the method: as §1
# [27] = target: Neu5Ac(a2-3)Gal(b1-4)[Fuc(a1-3)]GlcNAc6S
# Summary of the method: as §1
# [28] = target: Neu5Ac(a2-3)Gal6S(b1-4)GlcNAc
# Summary of the method: as §1
# [29] = target: Neu5Ac(a2-3)Gal6S(b1-4)[Fuc(a1-3)]GlcNAc
# Summary of the method: as §1
# Neu5Ac(a2-3)GalNAc = target: Neu5Ac(a2-3)GalNAc
# Summary of the method: as §1
# [30] = target: Neu5Ac(a2-3)GalNAc(b1-4)GlcNAc
# Summary of the method: as §1
# [31] = target: Neu5Ac(a2-3)[GalNAc(b1-4)]Gal(b1-4)Glc
# Summary of the method: as §1
# [32] = target: Neu5Ac(a2-3)[GalNAc(b1-4)]Gal(b1-4)GlcNAc
# Summary of the method: as §1
# [33] = target: Neu5Ac(a2-3)[Neu5Ac(a2-6)]GalNAc
# Summary of the method: as §1
# Neu5Ac(a2-6)Gal = target: Neu5Ac(a2-6)Gal
# Summary of the method: as §1
# Neu5Ac(a2-6)Gal(b1-4)Glc = target: Neu5Ac(a2-6)Gal(b1-4)Glc
# Summary of the method: as §1
# [34] = target: Neu5Ac(a2-6)Gal(b1-4)GlcNAc
# Summary of the method: as §1
binder,measurement,setting,value
B1,glycan array binding signal (z-score),[1],-0.24
same,glycan array binding signal (z-score),[2],-0.019
same,glycan array binding signal (z-score),[3],-0.278
same,glycan array binding signal (z-score),[4],-0.158
same,glycan array binding signal (z-score),[5],-0.404
same,glycan array binding signal (z-score),[6],-0.026
same,glycan array binding signal (z-score),[7],-0.219
same,glycan array binding signal (z-score),[8],-0.198
same,glycan array binding signal (z-score),[9],-0.192
same,glycan array binding signal (z-score),[10],-0.002
same,glycan array binding signal (z-score),[11],-0.125
same,glycan array binding signal (z-score),Neu5Ac(a2-3)Gal(b1-4)Glc,-0.267
same,glycan array binding signal (z-score),[12],-0.226
same,glycan array binding signal (z-score),[13],-0.006
same,glycan array binding signal (z-score),[14],-0.183
same,glycan array binding signal (z-score),[15],-0.244
same,glycan array binding signal (z-score),[16],-0.42
same,glycan array binding signal (z-score),[17],-0.097
same,glycan array binding signal (z-score),[18],-0.226
same,glycan array binding signal (z-score),[19],-0.384
same,glycan array binding signal (z-score),[20],-0.035
same,glycan array binding signal (z-score),[21],-0.474
same,glycan array binding signal (z-score),[22],0.064
same,glycan array binding signal (z-score),[23],-0.015
same,glycan array binding signal (z-score),[24],-0.129
same,glycan array binding signal (z-score),[25],0.029
same,glycan array binding signal (z-score),[26],-0.141
same,glycan array binding signal (z-score),[27],-0.436
same,glycan array binding signal (z-score),[28],-0.082
same,glycan array binding signal (z-score),[29],-0.144
same,glycan array binding signal (z-score),Neu5Ac(a2-3)GalNAc,-0.123
same,glycan array binding signal (z-score),[30],0.101
same,glycan array binding signal (z-score),[31],-0.095
same,glycan array binding signal (z-score),[32],-0.157
same,glycan array binding signal (z-score),[33],-0.203
same,glycan array binding signal (z-score),Neu5Ac(a2-6)Gal,-0.19
same,glycan array binding signal (z-score),Neu5Ac(a2-6)Gal(b1-4)Glc,-0.328
same,glycan array binding signal (z-score),[34],-0.175
